Experimental data published in article PMC6212790.
The other results are listed elsewhere or left out. At the low end of the ranking, values are background and their order means little.

Biological target: T1, GST-Rok (full length) (UniProt O34857)
T1 sequence: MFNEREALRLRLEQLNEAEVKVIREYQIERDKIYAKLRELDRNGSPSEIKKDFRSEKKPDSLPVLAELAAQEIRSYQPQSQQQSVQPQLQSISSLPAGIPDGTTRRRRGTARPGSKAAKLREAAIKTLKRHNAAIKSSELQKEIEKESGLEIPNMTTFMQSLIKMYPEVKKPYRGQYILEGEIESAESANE
Assay: protein binding microarray;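 further: rank score from −0.5 (least bound) to 0.5 (best bound)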
Settings: Rok is a gene silencer of Bacillus subtilis; high values mean tight binding; most listed sequences are background and not binding sites; double strand, one strand shown

Row | Sequence | binding signal
1 | TGCTAGAA | 0.387 E-score
2 | AAGTATCT | 0.297 E-score
3 | CATATTGG | -0.0429 E-score
4 | ATTCCGCG | 0.129 E-score
5 | CGATTGTC | -0.0643 E-score
6 | CCGCACGA | -0.246 E-score
7 | GCTCATAC | -0.052 E-score
8 | AGGGGTTG | -0.383 E-score
9 | AATTATTG | 0.239 E-score
10 | GTATGTCA | 0.125 E-score
11 | GGACACCC | -0.245 E-score
12 | CTACAGAA | 0.152 E-score
13 | GTAGCCGA | 0.0377 E-score
14 | TCCTACGA | 0.114 E-score
15 | GCGGAATA | 0.179 E-score
16 | AAGGTGGG | -0.188 E-score
17 | AATGTTGC | 0.0756 E-score
18 | CACTACCA | 0.221 E-score
19 | ATCCTAAA | 0.0823 E-score
20 | GGCCTCGA | -0.268 E-score
21 | AATAGATA | 0.262 E-score
22 | ATCGTTGC | 0.139 E-score
23 | ATGCTATA | 0.339 E-score
24 | ATGAGAAC | -0.0393 E-score
25 | CGCGGGTA | 0.0702 E-score

Row | Sequence | binding signal
26 | AAGACGGT | -0.057 E-score
27 | ACCCGCAC | -0.148 E-score
28 | AGAGGCTC | -0.231 E-score
29 | ACAGTGGC | -0.0538 E-score
30 | AACCACCT | -0.126 E-score
31 | ATACTACC | 0.36 E-score
32 | ACATCTCC | 0.0372 E-score
33 | GGTCAGAC | -0.135 E-score
34 | TTCTACAA | 0.392 E-score
35 | ACTCACGC | -0.154 E-score
36 | CCTACCAG | 0.0237 E-score
37 | ATCGGCAC | -0.222 E-score
38 | GAGACCGA | -0.26 E-score
39 | GGGTTCAC | -0.16 E-score
40 | AGTCAACC | -0.203 E-score
41 | CAGAGATA | 0.188 E-score
42 | AATCCCCT | -0.174 E-score
43 | AGGAAGAG | -0.228 E-score
44 | AGCCCCAT | -0.213 E-score
45 | AGAAGTAG | 0.219 E-score
46 | ATATCTTC | 0.262 E-score
47 | TCGCGAGA | 0.123 E-score
48 | ATACTCAA | 0.198 E-score
49 | CAACTTTC | 0.15 E-score
50 | AAAAGGTT | -0.148 E-score

Row | Sequence | binding signal
51 | AAACAGCG | -0.192 E-score
52 | AACTATGA | 0.285 E-score
53 | TGTTCGAA | 0.101 E-score
54 | AGAGGACC | -0.246 E-score
55 | ACGAGATC | -0.067 E-score
56 | AAACCCTA | -0.0129 E-score
57 | CATTCACC | -0.0704 E-score
58 | GAAACGGC | -0.103 E-score
59 | ACAACTCG | 0.0439 E-score
60 | AGTGGAAA | 0.0158 E-score
61 | AAGAGCTA | 0.104 E-score
62 | TCTCTCCA | -0.234 E-score
63 | AGTAATCC | -0.000301 E-score
64 | CCTGAATA | 0.175 E-score
65 | CCTCAGGA | -0.32 E-score
66 | CATACAAG | 0.0872 E-score
67 | CGCGTCAC | -0.12 E-score
68 | GATACGAA | 0.138 E-score
69 | TCCAACCA | -0.11 E-score
70 | ACGTGGAG | -0.074 E-score
71 | GCAGACCA | -0.276 E-score
72 | TCGTCACA | 0.118 E-score
73 | CGTATTAA | 0.157 E-score
74 | ACAAGGAG | -0.286 E-score
75 | ATCGCAGA | -0.0847 E-score

Row | Sequence | binding signal
76 | ATGTCCAA | 0.0904 E-score
77 | AAAGAACG | 0.0177 E-score
78 | GATCCTAA | -0.0892 E-score
79 | CTTCTGCC | -0.311 E-score
80 | ATAACATG | 0.152 E-score
81 | GTACCTGA | 0.102 E-score
82 | ATGTCGGC | 0.0255 E-score
83 | GATCACTA | 0.0769 E-score
84 | AAGGAGCA | -0.295 E-score
85 | AACTACGA | 0.292 E-score
86 | ACATTTTG | 0.18 E-score
87 | AGGCAGTG | -0.302 E-score
88 | CAGAATTA | 0.0718 E-score
89 | CAGCAGTC | 0.0125 E-score
90 | TGTGTAAA | 0.0793 E-score
91 | GCAGGGAC | -0.315 E-score
92 | AAACGCGG | -0.0383 E-score
93 | CCTAAGCG | -0.17 E-score
94 | GATAGTCA | 0.0302 E-score
95 | CGAGAGGC | -0.317 E-score
96 | CTCCAAAG | -0.248 E-score
97 | AAGTGGGG | -0.288 E-score
98 | GTAGTTCA | 0.217 E-score
99 | GAGACCGC | -0.268 E-score
100 | ACTGCCTG | -0.0375 E-score

Row | Sequence | binding signal
101 | CAGTCCTA | 0.123 E-score
102 | CTTCGTTC | -0.277 E-score
103 | GCGCGAGC | -0.127 E-score
104 | AAACAGGG | -0.0541 E-score
105 | CAACGGCC | -0.217 E-score
106 | AATCGATG | 0.06 E-score
107 | GACGTACA | 0.202 E-score
108 | CGGGCTCA | -0.321 E-score
109 | CGAATAGA | 0.127 E-score
110 | CATGACAA | 0.0877 E-score
111 | AGTCAGAG | -0.175 E-score
112 | ATGAACCG | -0.0944 E-score
113 | ATATACGC | 0.213 E-score
114 | GATAAATC | 0.186 E-score
115 | GCATATCA | 0.0288 E-score
116 | ACACTGGA | -0.0856 E-score
117 | AACCGGAA | -0.207 E-score
118 | TCCAAAGA | -0.105 E-score
119 | CAGATGAA | 0.026 E-score
120 | GGTATGAC | -0.0448 E-score
121 | GCCGTAGA | 0.0518 E-score
122 | AGGTGGGA | -0.0993 E-score
123 | CAGCGCTG | -0.169 E-score
124 | GCACACAA | -0.102 E-score
125 | CCGTCCCC | -0.468 E-score

Row | Sequence | binding signal
126 | CTATGAGC | -0.0858 E-score
127 | GGCGGGCA | -0.334 E-score
128 | CAGAAGCG | -0.142 E-score
129 | AGGGCCAC | -0.329 E-score
130 | CAGGACGG | -0.164 E-score
131 | CGCACTTA | 0.0626 E-score
132 | GTATCTTA | 0.179 E-score
133 | TCCTATAA | 0.232 E-score
134 | AAGCAAGC | -0.178 E-score
135 | AAGCCGGG | -0.213 E-score
136 | CCTAAACC | -0.152 E-score
137 | ATGTCTAG | 0.112 E-score
138 | CTGGGCCC | -0.306 E-score
139 | CCAGTTAG | 0.049 E-score
140 | CTACAACC | 0.119 E-score
141 | CTAGAAGA | 0.0371 E-score
142 | GTGCTAAA | 0.117 E-score
143 | CTATCGTA | 0.335 E-score
144 | ACTACAAA | 0.251 E-score
145 | GTTAGACA | 0.149 E-score
146 | CCGGTCAC | -0.153 E-score
147 | ATGAGAGA | -0.0267 E-score
148 | AAAAGCTG | 0.115 E-score
149 | ACCTTGCG | -0.00332 E-score
150 | ACAGTACC | 0.159 E-score

Row | Sequence | binding signal
151 | ACGAAACG | 0.0357 E-score
152 | AGGCATCA | -0.00485 E-score
153 | CCAACACC | -0.165 E-score
154 | AGACAACA | -0.167 E-score
155 | GTACTATA | 0.444 E-score
156 | ACACTCGT | 0.192 E-score
157 | ATCCGGAA | 0.0859 E-score
158 | GTCACAAA | 0.0126 E-score
159 | GAACGATC | 0.128 E-score
160 | CCCGAACG | -0.135 E-score
161 | ATGACCAA | 0.000102 E-score
162 | CTATCAGA | 0.252 E-score
163 | ACGCACCC | -0.221 E-score
164 | CCACACAC | -0.0245 E-score
165 | CTAACAAA | 0.128 E-score
166 | AGCGTCGA | -0.0241 E-score
167 | GAGGCTAA | -0.0664 E-score
168 | AAGATAGG | 0.0773 E-score
169 | TATCGGCA | -0.145 E-score
170 | AGAATGCC | -0.0218 E-score
171 | CGATCCTA | 0.144 E-score
172 | CCTTAGTA | 0.0464 E-score
173 | GTTCATTA | -0.0238 E-score
174 | GAGTAGCA | 0.067 E-score
175 | ATTACATG | 0.233 E-score

Row | Sequence | binding signal
176 | AAGGCGCT | -0.0571 E-score
177 | AGTTGAGA | -0.000301 E-score
178 | GCAAGCCA | -0.176 E-score
179 | CCGAGATA | 0.056 E-score
180 | TGTGACAA | -0.0757 E-score
181 | CTTTCCTC | -0.172 E-score
182 | CCACAGTC | -0.277 E-score
183 | GAACTTTA | 0.269 E-score
184 | CTACGTAA | 0.0899 E-score
185 | CGGACTGC | -0.131 E-score
186 | CCCCCGTA | -0.202 E-score
187 | ATAGTATC | 0.321 E-score
188 | TCGACCGA | -0.203 E-score
189 | CTATCATC | 0.2 E-score
190 | AGGTAGGG | -0.0356 E-score
191 | CCTGTCCA | -0.0803 E-score
192 | CTTACGAC | 0.101 E-score
193 | AAGATTTG | 0.0702 E-score
194 | CCGCTCCG | -0.212 E-score
195 | CCATTGCC | -0.26 E-score
196 | CTATTAGC | 0.204 E-score
197 | GCATAGAC | -0.0346 E-score
198 | ATAATTAA | 0.29 E-score
199 | CCGAGGAG | -0.22 E-score
200 | GAGAATCC | -0.0985 E-score

Row | Sequence | binding signal
201 | AGAAAACA | 0.0334 E-score
202 | CATCTTGG | -0.102 E-score
203 | AGACGGCA | -0.129 E-score
204 | ACCGAGAA | -0.0195 E-score
205 | ACTACATA | 0.326 E-score
206 | CTATGGTC | -0.0229 E-score
207 | GTTTCGTA | 0.236 E-score
208 | GACATCGC | -0.124 E-score
209 | CCATCGCA | -0.0675 E-score
210 | GTTATTAA | 0.296 E-score
211 | AGAGATCG | 0.0154 E-score
212 | GACCTCAC | -0.136 E-score
213 | CGAGTTCC | -0.139 E-score
214 | ACTATGTA | 0.316 E-score
215 | AATCGTCG | 0.0964 E-score
216 | GCGTCGAA | -0.075 E-score
217 | AACTACTG | 0.436 E-score
218 | AAGTCGTC | 0.0947 E-score
219 | AGCTAGAC | -0.0113 E-score
